Drawing on publication PMC5892938, this text covers binding signal (log2 fold change) for 37 sequences.

This is one part of the list. At the low end of the ranking the order means little.

The target in the assay is GST-SBP-SLBP (stem-loop binding protein) (UniProt Q14493). Nature of the assay: targeted RNA Bind-n-Seq.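 Further: DESeq read counts versus GST-SBP nonspecific binding control pulldown.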 The settings on record: RBNS binding buffer: 25 mM Tris pH 7.5, 150 mM KCl, 3 mM MgCl2, 0.1% Tween, 0.5 mg/mL BSA, 1 mM DTT; 27 nM protein, 750 pM RNA pool; temperature not stated; high values mean tight binding.
Turning to “GGUCACGUCUCAAUCAACUCAUUUCCAGGAGUUUCCUCCUGCUAUUUCAACAGCUCGCAGUCAAG”, the binding signal (log2 fold change) was determined as 0.0758.

In the case of “GGUCACGUCUCAAUCAACUCUCAAGAGGGGGGGAAAACCCCUUUACCCUCAUUCUCAACAGCUCGCAGUCAAG”, the binding signal (log2 fold change) was 0.271. The value for “GGUCACGUCUCAAUCAACUCUUAAGAGGGGGGGAAAACCCCUUUGCCCUCAUACUCAACAGCUCGCAGUCAAG” was 0.174; that for “GGUCACGUCUCAAUCAACUCUUCUUCAGGAGUUUACUCCUGUUAAUUCAACAGCUCGCAGUCAAG” was 0.15. Turning to “GGUCACGUCUCAAUCAACUCUCAAGAGGGGGGGAAAACCCCUUUACCCUCAUACUCAACAGCUCGCAGUCAAG”, the binding signal (log2 fold change) is -0.172. The value for “GGUCACGUCUCAAUCAACUCUUCUCCCAGGGAAAACCCUGGUAUACUCAACAGCUCGCAGUCAAG” was -0.175; that for “GGUCACGUCUCAAUCAACUCCCCAGAGGGGGGGAAAACCCCUUUACCCUCAUCUUCAACAGCUCGCAGUCAAG” was -0.195; that for “GGUCACGUCUCAAUCAACUCACACGAGGGGGGGAAAACCCCUUUACCCUCCAAAUCAACAGCUCGCAGUCAAG” was -0.33. The value for “GGUCACGUCUCAAUCAACUCUUUUUCCAGGGAAAACCCUGGCUUACUCAACAGCUCGCAGUCAAG” was 0.296. The same measure for “GGUCACGUCUCAAUCAACUCUUUUCCCAGGGAAACCCCUGGCAUUUUCAACAGCUCGCAGUCAAG”: -0.108. Take “GGUCACGUCUCAAUCAACUCAUUCUCAGGAGUUUCCUCCUGCAUACUCAACAGCUCGCAGUCAAG”: the binding signal (log2 fold change) is -0.00799.

Regarding “GGUCACGUCUCAAUCAACUCAACUUCCAGGGAAACCCCUGGUUAAUUCAACAGCUCGCAGUCAAG”, the binding signal (log2 fold change) was -0.289. The same measure for “GGUCACGUCUCAAUCAACUCAUCGCCAGGAGUUUUCUCCUGUAAACUCAACAGCUCGCAGUCAAG”: -0.0203. The same measure for “GGUCACGUCUCAAUCAACUCCAUGGAGGGGGGGAAAACCCCUUUACCCUCAUCUUCAACAGCUCGCAGUCAAG”: -0.353; for “GGUCACGUCUCAAUCAACUCAAUUCCCAGGGAAACCCCUGGCAUAGUCAACAGCUCGCAGUCAAG”: 0.0706. The same measure for “GGUCACGUCUCAAUCAACUCGCAAGAGGGGGGGAAAACCCCUUUACCCUCCACAUCAACAGCUCGCAGUCAAG”: 0.262; for “GGUCACGUCUCAAUCAACUCUUCUUCAGGAGUUUCCUCCUGUAAUCUCAACAGCUCGCAGUCAAG”: 0.115; for “GGUCACGUCUCAAUCAACUCUUCUCCAGGAGUUUACUCCUGCAUUCUCAACAGCUCGCAGUCAAG”: 0.0235. “GGUCACGUCUCAAUCAACUCUUUCCCCAGGGAAACCCCUGGUAAACUCAACAGCUCGCAGUCAAG”: the binding signal (log2 fold change) worked out at 0.0259. The value for “GGUCACGUCUCAAUCAACUCAAUCUCAGGAGUUUUCUCCUGCUAUCUCAACAGCUCGCAGUCAAG” was -0.0427; that for “GGUCACGUCUCAAUCAACUCUUAAGAGGGGGGGAAAACCCCUUUACCCUCGUCCUCAACAGCUCGCAGUCAAG” was -0.0547; that for “GGUCACGUCUCAAUCAACUCAGUCCCAGGAGUUUUCUCCUGUUAUUUCAACAGCUCGCAGUCAAG” was 0.0926.

With “GGUCACGUCUCAAUCAACUCUCAAGAGGGGGGGAAAACCCCUUUACCCUCAUUAUCAACAGCUCGCAGUCAAG”, the binding signal (log2 fold change) was 0.622.

Regarding “GGUCACGUCUCAAUCAACUCAUUCCCCAGGGAAACCCCUGGUUAUUUCAACAGCUCGCAGUCAAG”, the binding signal (log2 fold change) is -0.127. The value for “GGUCACGUCUCAAUCAACUCAGUUCCCAGGGAAACCCCUGGCAUUUUCAACAGCUCGCAGUCAAG” was 0.00216. The same measure for “GGUCACGUCUCAAUCAACUCAAUCUCAGGAGUUUUCUCCUGCAUAGUCAACAGCUCGCAGUCAAG”: 0.0697; for “GGUCACGUCUCAAUCAACUCUUUCCCAGGAGUUUCCUCCUGCAAUUUCAACAGCUCGCAGUCAAG”: -0.0135; for “GGUCACGUCUCAAUCAACUCCUACGAGGGGGGGAAAACCCCUUUACCCUCUACAUCAACAGCUCGCAGUCAAG”: -0.274.

On to “GGUCACGUCUCAAUCAACUCAAUUUCAGGAGUUUACUCCUGUUUAUUCAACAGCUCGCAGUCAAG”, for which the binding signal (log2 fold change) is -0.0625. The same measure for “GGUCACGUCUCAAUCAACUCUUAAGAGGGGGGGAAAACCCCUUUGCCCUCGUCAUCAACAGCUCGCAGUCAAG”: -0.0599. Take “GGUCACGUCUCAAUCAACUCAUCGUCCAGGGAAAGCCCUGGUAAUUUCAACAGCUCGCAGUCAAG”: the binding signal (log2 fold change) is -0.225. The value for “GGUCACGUCUCAAUCAACUCAGUCCCCAGGGAAAUCCCUGGCUUAUUCAACAGCUCGCAGUCAAG” was 0.119. The same measure for “GGUCACGUCUCAAUCAACUCCUUAGAGGGGGGGAAAACCCCUUUACCCUCCGUUUCAACAGCUCGCAGUCAAG”: -0.0943; for “GGUCACGUCUCAAUCAACUCUUCUCCAGGAGUUUUCUCCUGUAAACUCAACAGCUCGCAGUCAAG”: -0.118.

Consider “GGUCACGUCUCAAUCAACUCUAUCCCAGGAGUUUUCUCCUGUUAUCUCAACAGCUCGCAGUCAAG”, for which the binding signal (log2 fold change) is 0.083. The value for “GGUCACGUCUCAAUCAACUCAGUCCCAGGAGUUUUCUCCUGCUUAUUCAACAGCUCGCAGUCAAG” was -0.076; that for “GGUCACGUCUCAAUCAACUCAAUAGAGGGGGGGAAAACCCCUUUGCCCUCCAACUCAACAGCUCGCAGUCAAG” was -0.427.
